Results from patent US20240209078A1 (Amgen, published 2024).

Key:
Assay in all cases: cell-based or functional assay
[1] = biological target: T1, human CLL1 (C-type lectin-like receptor, CLEC12A, MICL) (human, UniProt Q5QGZ9 1-265)
T1 sequence (looked up): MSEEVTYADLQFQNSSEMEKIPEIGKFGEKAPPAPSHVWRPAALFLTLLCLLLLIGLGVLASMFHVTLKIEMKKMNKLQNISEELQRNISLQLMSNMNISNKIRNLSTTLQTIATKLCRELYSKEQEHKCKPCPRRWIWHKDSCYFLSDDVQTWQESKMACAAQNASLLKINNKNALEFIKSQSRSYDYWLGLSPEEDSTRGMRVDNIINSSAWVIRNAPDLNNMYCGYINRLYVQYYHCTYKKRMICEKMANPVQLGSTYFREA

[2] = biological target: human FLT3 (Fms like tyrosine kinase 3, CD135) (human, UniProt P36888 27-993)
CD3ε chain = CD3ε chain (human, UniProt P07766 23-126, limits assumed)
Chain of CD3ε chain (P07766 23-126 limits assumed): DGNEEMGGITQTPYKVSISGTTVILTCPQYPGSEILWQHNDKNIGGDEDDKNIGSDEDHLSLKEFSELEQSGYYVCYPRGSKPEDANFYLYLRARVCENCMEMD

[3] = biological target: T2, human CDH3 (Cadherin-3, P-Cadherin) (human, UniProt P22223 108-829)
human MSLN (mesothelin) [4] = biological target: T3, human MSLN (mesothelin) (human, UniProt Q13421 37-598)
[5] = biological target: T2, human CDH3 (Cadherin-3, P-Cadherin); remark: listed apart in the source
human MSLN (mesothelin) [6] = biological target: T3, human MSLN (mesothelin); remark: listed apart in the source

Binder | cytotoxicity EC50, CHO huCLL1 cells [1] [nM] | cytotoxicity EC50, CHO huFLT3 cells [2] [nM] | Activity reduction of single CD3 binding domain in molecule compared to high affinity binding domain I2C with KD 1.2E-08M (CD3ε chain) [fold] | cytotoxicity EC50, HCT 116 KO MSLN cells [3] [nM] | cytotoxicity EC50, HCT 116 KO CDH3 cells (human MSLN (mesothelin) [4]) [nM] | cytotoxicity EC50, GSU KO MSLN cells [5] [nM] | cytotoxicity EC50, GSU KO CDH3 cells (human MSLN (mesothelin) [6]) [nM]
CL1 9-G4 CC × 4G10.04 × scFc × FL 4-E9 CC × 4G10.04 (bispecific antibody) QVQLVQSGAEVKKPGASVKVSCKASGYTFTDYYMHWVRQAPGQCLEWMGWINPNSGGPNYAQKFQGRVTMTRDTSISTAHMELSRLRSDDTAVYYCAREKHAVAGIGFDYWGQGTLVTVSSGGGGSGGGGSGGGGSDIQMTQSPSSVSASVGDRVTITCQASQDISNYLNWYQQKPGKAPKLLIYAASSLESGVPSRFSGSGSGTDFTLTISSLQPEDFATYYCQQANSFPLTFGCGTKVDIKSGGGGSEVQLVESGGGLVQPGGSLKLSCAASGFTFSKYAMNWVREAPGKGLEWVARIRSKYNNYATYYAEAVKDRFTISRDDSKNTVYLQMNNLKTEDTAVYYCVRAENIGKSYISYWAYWGQGTLVTVSSGGGGSGGGGSGGGGSQTVVTQEPSLTVSPGGTVTMT[sequence of about 80 residues omitted]FGGGTKLTVLGGGGSGGGGSGGGGS[sequence of human IgG1 Fc with R292C N297G V302C (EU numbers) omitted]GGGGSGGGGSGGGGSGGGGSGGGGSGGGGS[sequence of human IgG1 Fc with R292C N297G V302C (EU numbers) omitted]GGGGSGGGGSGGGGSQVTLKESGPTLVKPTETLTLTCTVSGFSFRNARMGVSWIRQPPGKCLEWLAHIFSNDEKSYSTSLKSRLTISKDTSKSQVVLTMTNMDPVDTATYFCARVPEYSSGWYRFDYWGQGTLVTVSSGGGGSGGGGSGGGGSDIQMTQSPSSLSASVGDRVTISCRASQSIRSYLNWYQQKPGKAPKLLIYATSSLQGGVPSRFSGSGSGTDFTLTISSLQPEDFATYYCQQSYSTPFTFGCGTKVEIKSGGGGSEVQLVESGGGLVQPGGSLKLSCAASGFTFSKYAMNWVREAPGKGLEWVARIRSKYNNYATYYAEAVKDRFTISRDDSKNTVYLQMNNLKTEDTAVYYCVRAENIGKSYISYWAYWGQGTLVTVSSGGGGSGGGGSGGGGSQTVVTQEPSLTVSPGGTVTMT[sequence of about 80 residues omitted]FGGGTKLTVL | 0.089 | 0.17 | ~6 | – | – | – | –
CL1 9-G4 CC × 6H10.03 × scFc × FL 4-E9 CC × 6H10.03 (bispecific antibody) QVQLVQSGAEVKKPGASVKVSCKASGYTFTDYYMHWVRQAPGQCLEWMGWINPNSGGPNYAQKFQGRVTMTRDTSISTAHMELSRLRSDDTAVYYCAREKHAVAGIGFDYWGQGTLVTVSSGGGGSGGGGSGGGGSDIQMTQSPSSVSASVGDRVTITCQASQDISNYLNWYQQKPGKAPKLLIYAASSLESGVPSRFSGSGSGTDFTLTISSLQPEDFATYYCQQANSFPLTFGCGTKVDIKSGGGGSEVQLVESGGGLVQPGGSLKLSCAASGFTFNKYAMNWVRQAPGKGMEWVARIRSKYNNYATYYAEAVKDRFTISRDDSKNTLYLQMNNLKTEDTAVYYCVRAGNFGKSYISYWAYWGQGTLVTVSSGGGGSGGGGSGGGGSQTVVTQEPSLTVSPGGTVTITCGSSTGAVTSGNYPNWIQKKPGQAPRGLIGGTKFLAPGTPARFSGSLEGGKAALTLSGVQPEDEAEYYCVLWYSNRWVFGSGTKLTVLGGGGSGGGGSGGGGS[sequence of human IgG1 Fc with R292C N297G V302C (EU numbers) omitted]GGGGSGGGGSGGGGSGGGGSGGGGSGGGGS[sequence of human IgG1 Fc with R292C N297G V302C (EU numbers) omitted]GGGGSGGGGSGGGGSQVTLKESGPTLVKPTETLTLTCTVSGFSFRNARMGVSWIRQPPGKCLEWLAHIFSNDEKSYSTSLKSRLTISKDTSKSQVVLTMTNMDPVDTATYFCARVPEYSSGWYRFDYWGQGTLVTVSSGGGGSGGGGSGGGGSDIQMTQSPSSLSASVGDRVTISCRASQSIRSYLNWYQQKPGKAPKLLIYATSSLQGGVPSRFSGSGSGTDFTLTISSLQPEDFATYYCQQSYSTPFTFGCGTKVEIKSGGGGSEVQLVESGGGLVQPGGSLKLSCAASGFTFNKYAMNWVRQAPGKGMEWVARIRSKYNNYATYYAEAVKDRFTISRDDSKNTLYLQMNNLKTEDTAVYYCVRAGNFGKSYISYWAYWGQGTLVTVSSGGGGSGGGGSGGGGSQTVVTQEPSLTVSPGGTVTITCGSSTGAVTSGNYPNWIQKKPGQAPRGLIGGTKFLAPGTPARFSGSLEGGKAALTLSGVQPEDEAEYYCVLWYSNRWVFGSGTKLTVL | 0.675 | 0.785 | ~9 | – | – | – | –
MS 15-B12 CC × I2M2 × G4 × scFc × G4 × CH3 005-D5 CC × I2M2 (bispecific antibody) QVQLQESGPGLVKPSETLSLTCTVSGGSISSSSYFWGWIRQPPGKCLEWIGNIYYSGSSNYNPSLKSRVTISVDTSKNQFSLKLSSVTAADTAVYYCARLPRGDRDAFDIWGQGTMVTVSSGGGGSGGGGSGGGGSDIVMTQSPSSLSASVGDRVTITCRASQGISNYLAWYQQKPGKVPKLLIYAASTLQSGVPSRFSGSGSGTDFTLTISSLQPEDFATYYCQQSYSTPFTFGCGTKVEIKSGGGGSEVQLVESGGGLVQPGGSLKLSCAASGFTFNKYAINWVREAPGKGLEWVARIRSKYNNYATYYADAVKDRFTISRDDSKNTAYLQMNNLKTEDTAVYYCVRNANFGTSYISYFAYWGQGTLVTVSSGGGGSGGGGSGGGG[sequence of about 350 residues with a human IgG1 Fc omitted]GGGGSGGGGSGGGGSGGGGSGGGGSGGGGS[sequence of human IgG1 Fc with R292C N297G V302C (EU numbers) omitted]GGGGEVQLLESGGGLVQPGGSLRLSCAASGFSFSSYPINWVRQAPGKCLEWVGVIWTGGGTNYASSVKGRFTISRDNSKNTVYLQMNSLRAEDTAVYYCAKSRGVYDFKGRGAMDYWGQGTLVTVSSGGGGSGGGGSGGGGSDIVMTQSPDSLAVSLGERATINCKSSQSLLYSSNQKNYFAWYQQKPGQPPKLLIYWASTRESGVPDRFSGSGSGTDFTLTISSLQAEDVAVYYCQQYYSYPYTFGCGTKLEIKSGGGGSEVQLVESGGGLVQPGGSLKLSCAASGFTFNKYAINWVREAPGKGLEWVARIRSKYNNYATYYADAVKDRFTISRDDSKNTAYLQMNNLKTEDTAVYYCVRNANFGTSYISYFAYWGQGTLVTVSSGGGGSGGGGSGGGG[sequence of about 120 residues omitted] | – | – | – | 0.0041 | 0.0044 | 2.63 | 0.156
CH3 15-E11 CC × I2L × (G4S)3 × scFc × (G4S)3 × MS 15-B12 CC × I2L (bispecific antibody) QVQLVQSGAEVKKPGASVKVSCKASGYTFTNYWMNWVRQAPGQCLEWMGNIAYGVKGTNYNQKFQGRVTMTVDTSSSTAYMELSRLRSDDTAVYYCATRYFYVMDYWGQGTLVTVSSGGGGSGGGGSGGGGSDIQMTQSPSSLSASVGDRVTITCRASQDISNYLNWYQQKPGKVPKLLIYYTSRLHSGVPSRFSGSGSGTDFTLTISSLQPEDVATYYCVQYAQFPLTFGCGTKVEIKSGGGGSEVQLVESGGGLVQPGGSLKLSCAASGFTFNKYAMNWVRQAPGKGMEWVARIRSKYNNYATYYADAVKDRFTISRDDSKNTLYLQMNNLKTEDTAVYYCVRAGNFGSSYISYFAYWGQGTLVTVSSGGGGSGGGGSGGGGSQTVVTQEPSLTVSPGGTVTITCGSSTGAVTSGNYPNWIQKKPGQAPRGLIGGTKFLAPGTPARFSGSLEGGKAALTLSGVQPEDEAEYYCVLYYSNRWVFGSGTKLTVLGGGGSGGGGSGGGGS[sequence of human IgG1 Fc with R292C N297G V302C (EU numbers) omitted]GGGGSGGGGSGGGGSGGGGSGGGGSGGGGS[sequence of human IgG1 Fc with R292C N297G V302C (EU numbers) omitted]GGGGSGGGGSGGGGSQVQLQESGPGLVKPSETLSLTCTVSGGSISSSSYFWGWIRQPPGKCLEWIGNIYYSGSSNYNPSLKSRVTISVDTSKNQFSLKLSSVTAADTAVYYCARLPRGDRDAFDIWGQGTMVTVSSGGGGSGGGGSGGGGSDIVMTQSPSSLSASVGDRVTITCRASQGISNYLAWYQQKPGKVPKLLIYAASTLQSGVPSRFSGSGSGTDFTLTISSLQPEDFATYYCQQSYSTPFTFGCGTKVEIKSGGGGSEVQLVESGGGLVQPGGSLKLSCAASGFTFNKYAMNWVRQAPGKGMEWVARIRSKYNNYATYYADAVKDRFTISRDDSKNTLYLQMNNLKTEDTAVYYCVRAGNFGSSYISYFAYWGQGTLVTVSSGGGGSGGGGSGGGGSQTVVTQEPSLTVSPGGTVTITCGSSTGAVTSGNYPNWIQKKPGQAPRGLIGGTKFLAPGTPARFSGSLEGGKAALTLSGVQPEDEAEYYCVLYYSNRWVFGSGTKLTVL | – | – | – | 0.0244 | 0.0378 | 7.66 | 0.315
